Assay results reported in PubChem BioAssay AID504832 (National Center for Advancing Translational Sciences (NCATS), 2011).
Among all 310,000 compounds or so, about 18,000 (5.8%) were called active. This list was built around the results that the source calls inconclusive (neither active nor inactive); the mix of calls is not that of the screen. The call rests on the fitted dose curve; in most records, active means well fitted inhibition curve with a large enough effect; inconclusive means small, poorly fitted or top-dose-only effect, or another doubt; inactive means no such curve, though single readings can be large or run the other way. Potencies of inconclusive entries are left out as doubtful fits.

test: Primary qHTS for delayed death inhibitors of the malarial parasite plastid, 48 hour incubation; settings: P. falciparum luciferase growth in erythrocytes; series mostly up to 28.7 µM
Summary of the method: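 Luciferase-expressing P. falciparum in infected erythrocytes (2% hematocrit, 0.1% parasitemia final) in RPMI 1640/0.5% Albumax were exposed to compound for 48 hours at 37 C, 5% CO2; growth read as luminescence.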
Potency means the concentration at half of the fitted maximal effect; tags describe the fitted curve by direction and shape.

Question: For CN1CCN(c2cccc3c2C(=O)c2ccccc2C3=O)CC1, which Potency is on record?
Answer: inconclusive [inhibitor, single point]

Question: For COc1cc(/C=N/NC(=O)c2ccccc2O)ccc1OCC(=O)Nc1ccccc1, which Potency is on record?
Answer: inconclusive [inhibitor, single point]

Question: With Cc1cc(/C=C(\C#N)c2nnc(N3CCOCC3)n2-c2ccccc2)c(C)n1-c1ccccc1 as the compound, how does the Potency read?
Answer: inconclusive [inhibitor, single point]

Question: Which Potency does the source give for NC(=O)CN1CCN(c2nc(-c3ccc(F)cc3)cs2)CC1 here?
Answer: inactive

Question: Which Potency does the source give for CC(C)Cc1cc(C(=O)Nc2cc(Br)ccc2O)no1 here?
Answer: active: 1.85 µM

Question: For Cc1cccc(C(=O)OCCN2CCOCC2)c1, which Potency is on record?
Answer: inactive

Question: Which Potency does the source give for CCSc1nnc(NC(=O)C2CCN(S(=O)(=O)c3ccccc3C(F)(F)F)CC2)s1 here?
Answer: inconclusive [inhibitor, single point]

Question: Which Potency does the source give for CCOC(=O)c1nnn2c1nc(Nc1cccc(C(F)(F)F)c1)c1ccccc12 here?
Answer: inconclusive [inhibitor, full curve]

Question: For CCCCC1(C)OC(=O)C(=Cc2ccc(N(CC)CC)cc2)C(=O)O1 (stereo unspecified), which Potency is on record?
Answer: inconclusive [inhibitor, single point]

Question: With O=C1NC(=O)/C(=C\c2cn(Cc3ccccc3F)c3ccccc23)N1 as the compound, how does the Potency read?
Answer: inconclusive [inhibitor, full curve, poor fit]

Question: For CCOC(=O)c1cc(NC(=O)c2cccnc2)cc(C(=O)OCC)c1, which Potency is on record?
Answer: active: 2.94 µM

Question: With N#Cc1ncc(Cl)c2ccccc12 as the compound, how does the Potency read?
Answer: inconclusive [inhibitor, partial curve, poor fit]

Question: For CCN1C(=O)C(CC(=O)Nc2c(C)cccc2C)Nc2cc(S(=O)(=O)N(C)C)ccc21 (stereo unspecified), which Potency is on record?
Answer: inconclusive [inhibitor, single point]

Question: For O=C(c1ccc2ncsc2c1)N1CCN(c2ccc(O)cc2)CC1, which Potency is on record?
Answer: inconclusive [inhibitor, partial curve, poor fit]

Question: With COc1ccc(-c2noc(CNC(=O)c3ccoc3C)n2)cc1 as the compound, how does the Potency read?
Answer: inactive

Question: Which Potency does the source give for Cn1c2ccccc2c2cc(/C=N/NC(=O)c3cc(O)ccc3O)ccc21 here?
Answer: inconclusive [inhibitor, single point]

Question: With Cc1ccc(C(=O)NC(C(=O)Nc2ccccc2)c2ccccc2)cc1 (stereo unspecified) as the compound, how does the Potency read?
Answer: active: 9.28 µM

Question: For CCOc1ccc(C(C(=O)NC2CCCC2)N(C(=O)CNC(=O)c2ccco2)c2cccnc2)cc1 (stereo unspecified), which Potency is on record?
Answer: inconclusive [inhibitor, full curve]

Question: With COC(=O)c1ccc(NC(=O)CN2CCC(NC(=O)c3ccco3)CC2)cc1 as the compound, how does the Potency read?
Answer: inactive

Question: Which Potency does the source give for O=c1nc(N/N=C/c2ccco2)cn[nH]1 here?
Answer: inconclusive [inhibitor, single point]

Question: For CC(=O)c1c(O)c2ccccc2n(Cc2ccccc2)c1=O, which Potency is on record?
Answer: inconclusive [inhibitor, single point]

Question: For C=CCN(c1ccccc1)S(=O)(=O)c1cccc(C(=O)Nc2ncccc2O)c1, which Potency is on record?
Answer: inactive

Question: Which Potency does the source give for C=CCn1c(=N)n(CC(=O)c2ccc(OC)cc2)c2ccccc21 here?
Answer: inconclusive [inhibitor, single point]

Question: Which Potency does the source give for O=C(NCc1nc(-c2ccc(C(F)(F)F)cc2)no1)Nc1cc(Cl)cc(Cl)c1 here?
Answer: inconclusive [inhibitor, single point]

Question: With Cc1nc(-c2ccc(S(=O)(=O)NCc3cccnc3)s2)cs1 as the compound, how does the Potency read?
Answer: inactive

Question: Which Potency does the source give for COC(=O)C1=C(c2ccc(F)cc2OCc2ccccc2)C[C@@H]2CC[C@H]1N2C(=O)NCCO here?
Answer: inconclusive [inhibitor, single point]

Question: Which Potency does the source give for COc1cccc(CNC(=O)c2ccc(C)c(S(=O)(=O)N3CCOCC3)c2)c1 here?
Answer: inconclusive [inhibitor, partial curve, poor fit]

Question: With CC(C)CNS(=O)(=O)c1ccc(C(=O)Nc2ccc3c(c2)OCCO3)cc1 as the compound, how does the Potency read?
Answer: inconclusive [inhibitor, full curve, poor fit]

Question: Which Potency does the source give for CC(C)CCNC(=O)CCNS(=O)(=O)c1ccc(Cl)cc1 here?
Answer: inconclusive [inhibitor, single point]

Question: Which Potency does the source give for Cc1[nH]nc(SCC(=O)N(C)c2ccccc2)c1[N+](=O)[O-] here?
Answer: inactive

Question: For CCCN(CCC)S(=O)(=O)c1ccc2c(c1)CCCN2C(C)=O, which Potency is on record?
Answer: inconclusive [inhibitor, partial curve, poor fit]

Question: For CN(C(=O)Cc1noc2ccccc12)c1ccccc1, which Potency is on record?
Answer: inactive

Question: With Cc1cc(Cn2ccnc2)c(C)cc1Cn1ccnc1 as the compound, how does the Potency read?
Answer: active: 13.1 µM

Question: For CCN(CCn1cccn1)Cc1cn[nH]c1-c1ccc(-c2ccccc2)cc1, which Potency is on record?
Answer: active: 2.94 µM

Question: With COC(=O)c1ccc(/C=N\N2CCN(c3ccccc3)CC2)cc1 as the compound, how does the Potency read?
Answer: inactive

Question: With CC(C)c1ccccc1OCC(O)CN1CCN(S(=O)(=O)c2ccc([N+](=O)[O-])cc2)CC1 (stereo unspecified) as the compound, how does the Potency read?
Answer: active: 3.7 µM

Question: With CC(C)Cn1c(N)c(C(=O)COC(=O)C2CCCCC2)c(=O)n(C)c1=O as the compound, how does the Potency read?
Answer: inactive

Question: For COc1ccccc1C(=O)NC(=O)Nc1c(C)cc(C)cc1C, which Potency is on record?
Answer: inactive

Question: Which Potency does the source give for CC1CN(C(=O)N2c3ccccc3Sc3ccccc32)C(C)CC1=O (stereo unspecified) here?
Answer: inactive

Question: Which Potency does the source give for Cn1c(N/N=C/c2c[nH]c3ccccc23)nc2ccccc21 here?
Answer: active: 7.38 µM

Question: For CC(=O)O[C@]1(C(C)=O)CCC2C3C=C(C)C4=CC(=O)CC[C@]4(C)C3CC[C@@]21C (stereo partly specified), which Potency is on record?
Answer: inconclusive [inhibitor, single point]

Question: With COc1ccc(C(=O)NC2CCCc3ccccc32)cc1Br (stereo unspecified) as the compound, how does the Potency read?
Answer: inconclusive [inhibitor, single point]

Question: For COc1cc(OC)c(OC)cc1/C=N/Nc1nc2ccccc2[nH]1, which Potency is on record?
Answer: active: 1.04 µM

Question: For CCCCn1nc(NC(=O)c2cccs2)c2cc3ccccc3nc21, which Potency is on record?
Answer: inactive

Question: Which Potency does the source give for Clc1cccc(OCc2nnc(-c3ccccc3Br)o2)c1 here?
Answer: inconclusive [inhibitor, partial curve, poor fit]

Question: Which Potency does the source give for Cc1nc(-c2ccc(S(=O)(=O)Nc3ccccc3C)cc2)co1 here?
Answer: inconclusive [inhibitor, partial curve, poor fit]

Question: Which Potency does the source give for N/C(=N\OC(=O)c1cccc(Br)c1)c1ccccn1 here?
Answer: inactive

Question: With Cc1ncc(CO)c(/C=N/NC(=O)c2cc(Br)ccc2O)c1O as the compound, how does the Potency read?
Answer: inconclusive [inhibitor, single point]

Question: Which Potency does the source give for CC(OC(=O)c1ccc(-n2cnnn2)cc1)C(=O)Nc1ccc(F)c(F)c1F (stereo unspecified) here?
Answer: inactive

Question: For CCC(CNC(=O)c1c(C)nn(-c2ccccc2)c1Cl)c1ccccc1 (stereo unspecified), which Potency is on record?
Answer: inconclusive [inhibitor, single point]

Question: With Cc1nc(SCC(=O)c2cc3ccccc3oc2=O)c(C#N)c(-c2cccs2)c1C(=O)Nc1ccccc1 as the compound, how does the Potency read?
Answer: inconclusive [inhibitor, single point]

Question: For O=C(Nc1ccccc1Oc1cccnc1)C1CCCN(Cc2cccc(Cl)c2)C1 (stereo unspecified), which Potency is on record?
Answer: inconclusive [inhibitor, single point]

Question: For CCOc1ccc(S(=O)(=O)NCCC(=O)NCC(c2ccc(OC)cc2)N2CCCC2)cc1 (stereo unspecified), which Potency is on record?
Answer: inconclusive [inhibitor, single point]

Question: With COc1ccc(CN(C)C(=O)c2cccc(S(=O)(=O)N3CCc4ccccc43)c2)c(OC)c1 as the compound, how does the Potency read?
Answer: inconclusive [inhibitor, single point]

Question: Which Potency does the source give for Cc1cccn2c(=O)c(/C=C(\C#N)S(=O)(=O)c3ccccc3)c(Oc3ccc(Cl)cc3)nc12 here?
Answer: inconclusive [inhibitor, single point]

Question: Which Potency does the source give for CCc1ccc(N(C(=O)c2snc(C(N)=O)c2N)C(C(=O)NCC2CCCO2)c2cccs2)cc1 (stereo unspecified) here?
Answer: inconclusive [inhibitor, single point]

Question: With Cc1ccc2oc3c(c(=O)c2c1)C(c1cccc(Cl)c1)N(CCCN1CCOCC1)C3=O (stereo unspecified) as the compound, how does the Potency read?
Answer: active: 2.62 µM

Question: For COCc1cc(Sc2ccc(Cl)cc2)nc(-c2ccccc2)n1, which Potency is on record?
Answer: inconclusive [inhibitor, single point]

Question: For COc1cccc2sc(Nc3nnc(-c4cccs4)o3)nc12, which Potency is on record?
Answer: inconclusive [inhibitor, single point]

Question: Which Potency does the source give for Oc1cccc(C2c3[nH]c4ccccc4c3CCN2Cc2ccc3c(c2)CCO3)c1 (stereo unspecified) here?
Answer: inconclusive [inhibitor, single point]

Question: For Cc1ccccc1OCCNc1cc(N2CCCCC2)ccc1[N+](=O)[O-], which Potency is on record?
Answer: inconclusive [inhibitor, single point]

Question: With O=C(CSc1nc(C(F)(F)F)cc(=O)[nH]1)Nc1cccc2ccccc12 as the compound, how does the Potency read?
Answer: inactive

Question: Which Potency does the source give for Cc1ccc([N+](=O)[O-])cc1NC(=O)c1c(-c2ccccc2)noc1C here?
Answer: inactive

Question: For Cc1ccc(OCC(=O)Nc2ccc(CN3CCCCC3)cc2)c(C)c1, which Potency is on record?
Answer: inconclusive [inhibitor, partial curve]

Question: With CSc1nc2nccc(-c3ccc(Cl)cc3)n2n1 as the compound, how does the Potency read?
Answer: inactive

Question: With OCc1ccccc1N=c1ssnc1Cl as the compound, how does the Potency read?
Answer: inconclusive [inhibitor, single point]

Question: With Cn1c(SCC(=O)NC2CC2)nnc1-c1cccs1 as the compound, how does the Potency read?
Answer: inactive

Question: Which Potency does the source give for CC1(C)CCCC2=C1CC1C(=O)N(c3ccccc3)C(=O)C1C2 (stereo unspecified) here?
Answer: inconclusive [inhibitor, partial curve, poor fit]

Question: For O=C(Nc1ccccc1N1CCOCC1)c1cc(=O)[nH]c2ccccc12, which Potency is on record?
Answer: inconclusive [inhibitor, single point]

Question: With Cc1ccc(S(=O)(=O)NC(C(=O)N2CCOCCOCCOCC2)C(C)C)cc1 (stereo unspecified) as the compound, how does the Potency read?
Answer: inactive

Question: For O=C(Cn1nnc(-c2cccc(C(F)(F)F)c2)n1)NNS(=O)(=O)c1cccc(C(F)(F)F)c1, which Potency is on record?
Answer: inconclusive [inhibitor, full curve, poor fit]
